Read-outs that look alike come from different tables or passages of the source.
Biological target: T1, AbCGT V183P (Aloe vera, UniProt A0A7G9P699, V183P)
T1 sequence (A0A7G9P699 1-470 V183P): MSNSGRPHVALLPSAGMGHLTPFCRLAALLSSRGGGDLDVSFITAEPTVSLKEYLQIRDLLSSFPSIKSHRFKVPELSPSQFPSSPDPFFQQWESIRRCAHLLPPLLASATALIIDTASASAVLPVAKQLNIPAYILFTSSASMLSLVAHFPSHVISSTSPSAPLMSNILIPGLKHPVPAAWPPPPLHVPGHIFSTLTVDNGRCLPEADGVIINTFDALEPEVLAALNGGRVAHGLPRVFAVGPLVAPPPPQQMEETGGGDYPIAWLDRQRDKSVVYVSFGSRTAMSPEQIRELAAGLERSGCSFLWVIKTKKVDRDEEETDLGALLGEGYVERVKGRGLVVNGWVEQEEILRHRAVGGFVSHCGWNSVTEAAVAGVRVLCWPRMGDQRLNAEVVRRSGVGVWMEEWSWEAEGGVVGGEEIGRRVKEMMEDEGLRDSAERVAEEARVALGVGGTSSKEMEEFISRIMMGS
Format: biochemical, Aloe barbadensis
Experimental: The reaction mixture contained 0.5 mM sugar donors (1.0 mM for di-glycosylation), 0.25 mM aglycons, 50 mM Tris-HCl (pH 7.4), and 50‒100 μg of purified AbCGT in a final volume of 100 μL. Due to the instability of some acceptors in the buffer of pH 11.0, the reactions were performed under the physiological conditions (pH 7.4, 30 °C) to compare the catalytic activities of AbGT27 with different substrates under the same conditions. The reactions were performed at 30 °C for up to 12 h and terminated by the addition of 200 μL of ice-cold methanol. Subsequently, samples were centrifuged at 15,000 × g for 30 min to collect the supernatant, and aliquots were analyzed by HPLC-UV/ESIMS. HPLC analysis was performed on a Shiseido CAPCELL PAK C18 MG III column (250 mm × 4.6 mm I.D., 5 μm, Shiseido Co., Ltd., Japan) at a flow rate of 1 mL min^‒1. The mobile phase was a gradient elution of solvents A (0.1% formic acid aqueous solution) and B (methanol). The gradient programs were used for the analysis of the reactions (Supplementary Table 6). The conversion rates of the enzyme reactions were calculated from peak areas of glycosylated products and substrates as analyzed by HPLC. To facilitate inferential statistical analysis, three parallel assays were routinely performed; the means ± SD from triplicate analyses are reported here.
Site-saturation mutagenesis of AbCGT at residue 183 was performed by PCR using pET28a-AbCGT as a template and the corresponding degenerate primers, which are listed in Supplementary Table 5. PCR products were purified and transformed into Trans1-T1 (DE3) E. coli. The sequences of pET28a-AbCGT mutants were confirmed by sequencing, and transformed into Transetta (DE3) E. coli for heterologous expression following protein purification.

Row | Compound | V183P/yield of C-glycoside(%) (reaction-1) | V183P/yield of O-glycoside(%) (reaction-1) | V183P/yield of C-glycoside(%) (reaction-2) | V183P/yield of O-glycoside(%) (reaction-2) | V183P/yield of C-glycoside(%) (reaction-3) | V183P/yield of O-glycoside(%) (reaction-3)
1 | CC(=O)c1ccccc1O [Compound 1] | 0 | 0 | 0 | 0 | 0 | 0
2 | CC(=O)c1cccc(O)c1 [Compound 2] | 0 | 0 | 0 | 0 | 0 | 0
3 | CC(=O)c1ccc(O)cc1 [Compound 3] | 0 | 0 | 0 | 0 | 0 | 0
4 | CC(=O)c1cc(O)cc(O)c1 [Compound 4, 3,5-dihydroxyacetophenone] | 0 | 1.6 | 0 | 2.1 | 0 | 2
5 | CC(=O)c1c(O)cccc1O [Compound 5] | 8 | 0 | 9.2 | 0 | 8.6 | 0
6 | CC(=O)c1ccc(O)cc1O [Compound 6, 2,4-dihydroxyacetophenone] | 14.5 | 1.8 | 13.8 | 1.4 | 13.6 | 1.5

— PMC7558026, “Exploring and applying the substrate promiscuity of a C-glycosyltransferase in the chemo-enzymatic synthesis of bioactive C-glycosides” (Nature Communications, 2020)
